# Experimental data: article PMC12136788
# The list shows a part of the results.
# B1: chr4:76721835:76721836:+_ENSG00000138768_ENST00000264904|hu_mus|hu_hu_hu_mus_True|38_48 (ssRNA)
# RNA: GGGAGUUCUACAGUCCGACGAUCGUUUGGCUGGGGUUUCUGAGACGCUCUGGAAUAUAACUCAUGUUUGCUAAUAAAUCCUAGUUUUCUAUGAAAUUCUCUUUGCCCAAUCCUCUUCUCUAUUAGUUGCUUUAGUUUCUCUUUCAACAGAGGAUUGAGCAUCA
# B2: chr13:100192331:100192332:-_ENSMUSG00000052727_ENSMUST00000064762|mus_hu|motif|central (ssRNA)
# RNA: GGGAGUUCUACAGUCCGACGAUCGCAAAUGAUUAAAUCUUAAUUAAAUGAGUAUUGGAAAGCUCCUAGACUGCAUAAGCGGUUGGAGACACUUAAAACAUUCAUAUACACUGGGGAAACCAUUCACUAUGAUAUGUAACGUUACAACAGAGGAUUGAGCAUCA
# B3: 129337241_129337361_1839_3pUTR_ENSMUSG00000041220_ENSMUST00000071402|mouse|control|control (ssRNA)
# RNA: GGGAGUUCUACAGUCCGACGAUCGGGCUGGCAUUUGUUACACAUGGUACAAGACUCCAUUUUCAAGCCAGCCAGCUGAGCUUCUUCCCUUUCAGUUCUGCAUUUACUCCUCCGUCCUAAAGUUUGGGGCAACUGAACAACGGACAACAGAGGAUUGAGCAUCA
# B4: chr2:168013125:168013126:-_ENSMUSG00000051149_ENSMUST00000088001|mus_hu|FALSE|FALSE (ssRNA)
# RNA: GGGAGUUCUACAGUCCGACGAUCCUCCCAUGUAGUGUUUUUCAAAUAAAAGUCAUUAGGUUCAAAUUGUUUAAAAUCUUCUAUAUGUUCUUUACAGUAUUCCAACCCAAUGUCACUAAGUAUUUUUUUCACAGUUUUCCGGGCCAACAGAGGAUUGAGCAUCA
# B5: chr2:149803492:149803493:+_ENSG00000168280_ENST00000414838|hu_hu|FALSE|FALSE (ssRNA)
# RNA: GGGAGUUCUACAGUCCGACGAUCAGUUUUGCUGACCUUUUCGCUCCCAGCCAAAUCAACCAAAUAAAGUUUCCCACUGAGUUUUUUUUCAGUCUCUACAUUCUCUUGUUUAAUAUUUAUCAGGAAGAUACUGUGACUUCUAGACAACAGAGGAUUGAGCAUCA
# B6: chr2:31460152:31460153:+_ENSMUSG00000026843_ENSMUST00000055244|mus_mus|FALSE|FALSE (ssRNA)
# RNA: GGGAGUUCUACAGUCCGACGAUCGUUCUGGAUCUUCUUAAUCAUUUCUCCGUUCCUUCCUAUGACAAUCCCAACAACAAACCUAGGCACAGACACCUCUAUACUACCUCCGCCUGCUCGGGAGGUGAAAUCGCUGCGCACACCCAACAGAGGAUUGAGCAUCA
# B7: chr22:19452774:19452775:-_ENSG00000070010_ENST00000399523|hu_hu|hu_hu_hu_mus_False|8_88 (ssRNA)
# RNA: GGGAGUUCUACAGUCCGACGAUCCUUCUCAUUGUAGUUGAUAGCAAUCACAUCCCCAGUCGUCAGACAGGCGAAGUUUCUCAAUGCAUUUUCUAAUACCGCUUUAGGGUUGGUAAUAUCCAGGAAGUCAGGGCUCUGAGGCUGCAACAGAGGAUUGAGCAUCA
# B8: chr7:54823571:54823572:-_ENSG00000132432_ENST00000352861|hu_mus|hu_hu_hu_mus_False|58_88 (ssRNA)
# RNA: GGGAGUUCUACAGUCCGACGAUCUCCCAUGAUAGCAAAUCCUAUAGCUGUUGCCAUGGCAAUCUUCUGGAAUUCUUUUCUAUCAGGUUUGGUGCAUCUUUUAACCAGCCGAAUUGAGUCCUUUACAAACUGCCGGCUGGGCUCCAACAGAGGAUUGAGCAUCA
# B9: chr17:60770872:60770873:+_ENSG00000011028_ENST00000303375|hu_mus|motif|central (ssRNA)
# RNA: GGGAGUUCUACAGUCCGACGAUCUCUUUAAAAAAAAAAAAAAAAAGACAAACAAUAAUAGCACAUUUCGAGAAUCAAGAACGGCAAUAGAGGGUCCGCUUUGAGUUUUUGUUCACAUCGUCCUGCACUGGGACACGGGGACUGCAACAGAGGAUUGAGCAUCA
# B10: chr8:100899844:100899845:-_ENSG00000164919_ENST00000517682|hu_hu|motif|central (ssRNA)
# RNA: GGGAGUUCUACAGUCCGACGAUCUUGAUCAGCCACACGAAACUUAUACAAAGCUGCAACCCCCAGGGAUAGCACGAAUGCGGCAGCCAUAUGAUUUCGCAGACGCCUGGCCAGAAGGCCACGCAUCCGAGGUUUUGGCAAAACCAACAGAGGAUUGAGCAUCA
# B11: chr2:32530670:32530671:+_ENSG00000119820_ENST00000437765|hu_mus|FALSE|FALSE (ssRNA)
# RNA: GGGAGUUCUACAGUCCGACGAUCCUCCAAUCCCUCCAGCAAGAAUUCCCAGCGUAAUACAAAUGUAACACCAUCUUUUUGAUUCAUGUACAACUUGGAUCACACUCCAGUAUAUAAGGACAAAAAAUAAAUGUACAAUAAAAACAACAGAGGAUUGAGCAUCA
# B12: 87970343_87970463_7099_CDS_ENSG00000188994_ENST00000369577|human|control|control (ssRNA)
# RNA: GGGAGUUCUACAGUCCGACGAUCAUUUCUAGCCUUUAUAGAAUAUACAUGCUUCCCACGUUUCAGAGAAUAAGGCUUAUUUUCUUCAAUCUGCACAAUCUUUGCAUUCUUGUUUUCUAAAUUAUUUUUUUUCUUUCGUUUGGUCAACAGAGGAUUGAGCAUCA
# B13: chr11:29608638:29608639:+_ENSMUSG00000020458_ENSMUST00000102843|mus_mus|motif|central (ssRNA)
# RNA: GGGAGUUCUACAGUCCGACGAUCAAGUUUUUCCUCUGCUUCUUUCGUAAGUACUUUGGGUUUAACUAUGUUGCCCAUUUCGGUUUGAGAUUCCAAAGCAGAAACAUUUGGAAGCAAUAAGGGCACCUUAGAUACACUGGACCUCAACAGAGGAUUGAGCAUCA
# B14: chr1:187193504:187193505:+_ENSMUSG00000026615_ENSMUST00000046514|mus_mus|FALSE|FALSE (ssRNA)
# RNA: GGGAGUUCUACAGUCCGACGAUCAUCAAUCUCAGUGUGCUCCAUCAGGUUAGUCCCAUACAGCCCAGACGUAGUUGCAAUUCUAGCCAGGUAGCGCAGGAUUGAAUUCACGUCAGUGAAUGCCACAGUCUCAGAAACCCGAAGCAACAGAGGAUUGAGCAUCA
# Target: T1, UNK ZnF1-3 (human, UniProt Q9C0B0 31-174)
# T1 sequence: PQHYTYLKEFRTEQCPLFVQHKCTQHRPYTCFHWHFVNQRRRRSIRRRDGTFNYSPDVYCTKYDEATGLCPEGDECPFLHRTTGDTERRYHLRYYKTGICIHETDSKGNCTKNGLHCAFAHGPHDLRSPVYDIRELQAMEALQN
# Test: nsRBNS (natural sequence RNA bind-n-seq); RBNS binding buffer (assumed for nsRBNS): 25 mM Tris pH 7.5, 150 mM KCl, 3 mM MgCl2, 0.01% Triton X-100, 500 ug/ml BSA, 20 U/ml SUPERase-In, 4 C; UNK is unkempt and MSI1 is Musashi-1; names of the RNAs are library labels; protein concentration not given here; high values mean tight binding
row,Binder,binding signal
1,B1,0.582 enrichment R
2,B2,1.23 enrichment R
3,B3,0.894 enrichment R
4,B4,0.831 enrichment R
5,B5,1.02 enrichment R
6,B6,0.985 enrichment R
7,B7,0.905 enrichment R
8,B8,0.737 enrichment R
9,B9,2.88 enrichment R
10,B10,1.26 enrichment R
11,B11,2.48 enrichment R
12,B12,0.634 enrichment R
13,B13,0.647 enrichment R
14,B14,0.933 enrichment R
